Results published in publication PMC4336329 (PLoS ONE, 2015).
The campaign covered roughly 310,000 compounds. About 14,000 (4.5%) showed an effect of 50% or more. The effect is printed as a negative number. The list shows a part of the results.

target: human ether-à-go-go-related gene (hERG) potassium channel (human, UniProt Q12809); test: primary screen, population patch clamp on CHO cells stably expressing hERG
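Also: peak tail current of the secondary pulse compared with the same well before compound.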

Sequence of human ether-à-go-go-related gene (hERG) potassium channel (Q12809 whole entry, looked up): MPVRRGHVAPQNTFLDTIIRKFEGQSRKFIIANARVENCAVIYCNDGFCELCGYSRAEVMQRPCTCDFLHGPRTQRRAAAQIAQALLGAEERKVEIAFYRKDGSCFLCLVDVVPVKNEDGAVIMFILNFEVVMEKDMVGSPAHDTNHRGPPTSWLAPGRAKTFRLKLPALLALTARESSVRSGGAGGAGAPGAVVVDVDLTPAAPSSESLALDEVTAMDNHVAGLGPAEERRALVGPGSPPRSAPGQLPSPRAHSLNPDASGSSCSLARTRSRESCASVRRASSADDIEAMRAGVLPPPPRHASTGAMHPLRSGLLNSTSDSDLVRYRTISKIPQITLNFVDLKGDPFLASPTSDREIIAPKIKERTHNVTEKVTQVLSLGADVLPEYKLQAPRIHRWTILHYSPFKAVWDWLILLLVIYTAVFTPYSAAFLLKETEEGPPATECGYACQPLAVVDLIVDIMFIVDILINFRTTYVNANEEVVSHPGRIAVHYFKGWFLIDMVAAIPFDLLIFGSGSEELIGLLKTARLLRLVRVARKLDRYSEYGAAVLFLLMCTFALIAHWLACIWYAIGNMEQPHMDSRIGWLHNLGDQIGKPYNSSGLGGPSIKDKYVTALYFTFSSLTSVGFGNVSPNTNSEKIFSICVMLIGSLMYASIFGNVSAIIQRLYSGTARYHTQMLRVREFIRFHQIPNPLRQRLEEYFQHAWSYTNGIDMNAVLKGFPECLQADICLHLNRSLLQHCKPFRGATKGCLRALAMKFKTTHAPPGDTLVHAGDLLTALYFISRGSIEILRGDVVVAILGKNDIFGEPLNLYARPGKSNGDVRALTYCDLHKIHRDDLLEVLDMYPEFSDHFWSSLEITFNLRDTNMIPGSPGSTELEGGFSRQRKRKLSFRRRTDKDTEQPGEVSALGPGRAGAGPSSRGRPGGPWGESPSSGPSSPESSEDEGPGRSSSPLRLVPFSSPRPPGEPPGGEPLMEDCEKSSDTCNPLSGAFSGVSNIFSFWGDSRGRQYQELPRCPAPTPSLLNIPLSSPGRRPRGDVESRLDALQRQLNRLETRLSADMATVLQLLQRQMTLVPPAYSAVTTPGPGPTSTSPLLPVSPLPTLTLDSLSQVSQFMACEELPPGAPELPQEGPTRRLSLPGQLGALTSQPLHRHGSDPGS

Compared with `O=C(/C=C\c1ccc2c(c1)OCO2)NC1(C(=O)Nc2ccc3c(c2)OCCO3)CCCCC1`, `O=C(Nc1ccc2c(c1)OCO2)C1CC(=O)N(c2ccc(F)cc2)C1` (stereo not shown) is higher in “hERG current change (%, negative = inhibition) at 10uM” value: 6.02% for the first, 11.7% for the second.

Compared with `COc1cc2ccccc2cc1C(=O)N1CCCC(C(F)(F)F)C1` (stereo not shown), `COc1ccc(F)cc1C(=O)C1CCCN(Cc2c[nH]c3ccccc23)C1` (stereo not shown) is lower in “hERG current change (%, negative = inhibition) at 10uM” value: -14.3% for the first, -63.8% for the second.

Going from `COc1cccc(NC(=S)NNC(=O)Cn2nc(C(F)(F)F)cc2C)c1` to `COc1ccc(NC(=S)NCCc2c[nH]c3ccccc23)cc1`, the “hERG current change (%, negative = inhibition) at 10uM” value falls from 18.2% to -7.49%.

First: COc1ccc(C(=O)NCCNc2ccc([N+](=O)[O-])cc2)cc1
Second: COc1ccc(C(=O)NC2=Nc3ccccc3N=C(C)C2c2ccccc2)cc1 (stereo not shown)
The “hERG current change (%, negative = inhibition) at 10uM” value of the first is lower: -40.9% for the first, 1.66% for the second.

Compared with `CN1C(=O)C(CC(=O)NCCc2ccccc2)N(NC(=O)c2cccc(F)c2)C1=S` (stereo not shown), `O=C(O)c1ccccc1C(=O)NNc1ccc(F)cc1F` is lower in “hERG current change (%, negative = inhibition) at 10uM” value: 11.3% for the first, -0.769% for the second.

Compared with `COc1cc(NS(=O)(=O)c2ccc3c(c2)NC(=O)CO3)cc(OC)c1`, `CC1CCCCC1NC(=O)CCS(=O)(=O)c1ccc2c(c1)NC(=O)CO2` (stereo not shown) is higher in “hERG current change (%, negative = inhibition) at 10uM” value: -0.551% for the first, 12.5% for the second.

First: Cc1ccc(C(=O)N2CCCC(Nc3ccc(C)c(C)c3)C2)c(=O)[nH]1 (stereo not shown)
Second: Cc1ccc(OCc2cc(C(=O)N3CCN(C4CCCC4)CC3)no2)cc1C
The “hERG current change (%, negative = inhibition) at 10uM” value of the first is lower: -50.3% for the first, -18.4% for the second.

Going from `COC(C(=O)Nc1ccc(NC(=O)C(OC)c2ccccc2)cc1)c1ccccc1` (stereo not shown) to `O=C(O)CC(CC(=O)Nc1ccc(Oc2ccccc2)cc1)c1ccccc1` (stereo not shown), the “hERG current change (%, negative = inhibition) at 10uM” value falls from 13.7% to 11.7%.

Going from `CC(C)CCNC(=O)CN(Cc1cccs1)C(=O)CCC(=O)Nc1nccs1` to `CCOc1ccc(C(CC(=O)O)NC(=O)c2cccs2)cc1` (stereo not shown), the “hERG current change (%, negative = inhibition) at 10uM” value rises from -10.6% to -8.2%.

Going from `COCCCn1c(=O)/c(=C\c2cccc(OC)c2OC)s/c1=C(/C#N)C(=O)Nc1ccc(C(=O)O)cc1` to `COc1ccc(OC)c(NC(=O)CSc2nnc(Cn3c(=O)sc4ccccc43)n2C)c1`, the “hERG current change (%, negative = inhibition) at 10uM” value falls from 9.33% to -48.6%.

Going from `COC(=O)c1ccc(SCC(=O)NC2CCCC2)c([N+](=O)[O-])c1` to `COC(=O)CSc1nnc(-c2ccc(S(=O)(=O)N3CCC(C)CC3)cc2)o1`, the “hERG current change (%, negative = inhibition) at 10uM” value rises from -1.54% to 8.36%.

Compared with `CCOc1cccc(/C=N/Nc2nc(N3CCCC3)nc(N3CCCC3)n2)c1O`, `COc1cccc(CC(=O)NCC2(N3CCCCC3)CCCCC2)c1` is higher in “hERG current change (%, negative = inhibition) at 10uM” value: 8.34% for the first, 25% for the second.

Going from `OC1/C(=C/c2ccccc2C(F)(F)F)N2CCC1CC2` (stereo not shown) to `O=C(CN1C(=O)c2ccccc2C1=O)Nc1ccccc1C(F)(F)F`, the “hERG current change (%, negative = inhibition) at 10uM” value falls from 9.66% to 0.726%.

Compared with `Cc1c(N2C(=O)c3ccccc3C2=O)c(=O)n(-c2ccccc2)n1C`, `CC(=O)c1c(NCc2ccccc2)nc(=O)n(-c2ccccc2)c1C` is lower in “hERG current change (%, negative = inhibition) at 10uM” value: 2.8% for the first, -0.97% for the second.

Going from `O=C(NC(CO)(CO)CO)c1coc(=O)c(Br)c1` to `Cc1cccc(C(=O)NCc2ccco2)c1`, the “hERG current change (%, negative = inhibition) at 10uM” value rises from 3.37% to 16.6%.

Compared with `COc1ccccc1Nc1nccc(N(C)C)c1C#N`, `COc1ccc(/C=N/NC(=O)c2ccc3nc[nH]c3c2)cc1OC` is lower in “hERG current change (%, negative = inhibition) at 10uM” value: 24.5% for the first, 20.7% for the second.

Compared with `O=c1[nH]c(-[n+]2ccc3ccccc3c2)c(/C=N/N=C(\[O-])c2ccccc2)s1`, `O=C(Cc1ccccc1)n1nc(-c2ccco2)nc1SCc1ccccc1` is lower in “hERG current change (%, negative = inhibition) at 10uM” value: 9.89% for the first, -0.242% for the second.

Compared with `Cn1c(-c2ccccc2)nc2cnccc21`, `COc1ccc(-c2onc(C)c2-c2cnn(-c3ccccc3)c2)c(O)c1` is higher in “hERG current change (%, negative = inhibition) at 10uM” value: -0.408% for the first, 3.71% for the second.

Going from `Cc1cc(OC(=O)c2ccc(F)cc2)c([N+](=O)[O-])c(=O)[nH]1` to `O=C(NCc1ccc(F)cc1)c1cccc(S(=O)(=O)N2CCCC2)c1`, the “hERG current change (%, negative = inhibition) at 10uM” value falls from 15.6% to -35.8%.

Going from `O=C(N/N=C/c1ccco1)c1ccccn1` to `CC(C)c1cccc(OCC(=O)Nc2ccc(S(=O)(=O)Nc3ccccn3)cc2)c1`, the “hERG current change (%, negative = inhibition) at 10uM” value rises from -5.91% to 30.8%.

First: Cc1cc(NC(=O)COC(=O)c2c(C)nn(Cc3ccccc3)c2C)no1
Second: O=C(COC(=O)CCSc1ccccc1)NCc1ccccc1Cl
The “hERG current change (%, negative = inhibition) at 10uM” value of the first is lower: 1.23% for the first, 22.4% for the second.

First: Cc1ccc(S(=O)(=O)N2CCC(=O)N(C(COCc3cccc(C(F)(F)F)c3)Cc3ccccc3)CC2)cc1 (stereo not shown)
Second: O=C(CN1C(=O)CSc2ccc(S(=O)(=O)N3CCCCC3)cc21)NCc1ccccc1
The “hERG current change (%, negative = inhibition) at 10uM” value of the first is higher: -1.78% for the first, -38% for the second.

Compared with `CCCCn1nc2cc(C(=O)NCC34CC5CC(CC(C5)C3)C4)ccc2c1OC`, `COc1ccc(CCNC2CC(=O)N(C3CCCCC3)C2=O)cc1OC` (stereo not shown) is lower in “hERG current change (%, negative = inhibition) at 10uM” value: -6.83% for the first, -7.18% for the second.

First: CCOC(=O)CN(C(=O)CSc1nnc(-c2cccc(OC)c2)o1)c1ccc(F)cc1
Second: COc1ccc(N2Cc3cccc(C(=O)O)c3C2=O)cc1
The “hERG current change (%, negative = inhibition) at 10uM” value of the first is lower: -46.8% for the first, -1.27% for the second.

Going from `CC1CCN(C2(O)C(=O)Nc3ccc(Br)cc32)CC1` (stereo not shown) to `NC(=O)C1CCN(C2CC(=O)N(c3cccc(F)c3)C2=O)CC1` (stereo not shown), the “hERG current change (%, negative = inhibition) at 10uM” value falls from 19.4% to -1.68%.

Compared with `COc1ccc(C2=NN(CN3C(=O)C(=O)c4ccccc43)C(c3ccc(OC)cc3)C2)cc1` (stereo not shown), `COc1ccc(N2C(=O)NC(=O)/C(=C\c3cn(CC(=O)N4CCOCC4)c4ccccc34)C2=O)c(OC)c1` is lower in “hERG current change (%, negative = inhibition) at 10uM” value: 9.84% for the first, 2.01% for the second.

Compared with `CCOC(=O)c1ccccc1NC(=O)N[C@@H](C)C(=O)OC`, `CNc1ccccc1C(=O)OCC(=O)N1CCN(c2ccc(OC)cc2)CC1` is higher in “hERG current change (%, negative = inhibition) at 10uM” value: 1.39% for the first, 2% for the second.

Going from `COc1ccc(N2CCN(C(=O)c3cccc(N4C(=O)C5C6C=CC(C6)C5C4=O)c3)CC2)cc1` (stereo not shown) to `COc1ccccc1N1CCN(C2CC(=O)N(c3ccc(Cl)cc3)C2=O)CC1` (stereo not shown), the “hERG current change (%, negative = inhibition) at 10uM” value rises from -17.6% to 12.3%.

Going from `COc1cccc(C(=O)/C=C/Nc2ccc(S(=O)(=O)Nc3cnc4ccccc4n3)cc2)c1` to `CC(NCc1ccccc1Cl)C(=O)Nc1ccc(S(=O)(=O)N2CCCC2)cc1` (stereo not shown), the “hERG current change (%, negative = inhibition) at 10uM” value rises from -11.1% to -0.602%.

Compared with `O=C1CC2C(CC(OC(=O)c3ccc(-c4ccccc4)cc3)C2CO)O1` (stereo not shown), `O=C(/C=C/c1ccccc1)Nc1cc(NC(=O)/C=C/c2ccccc2)cc(C(=O)O)c1` is higher in “hERG current change (%, negative = inhibition) at 10uM” value: -8.02% for the first, 21.4% for the second.

First: COc1ccc(NC(=O)CSc2nc(=O)n(CCN3CCOCC3)c3c2CCC3)cc1
Second: CC(C)c1ccc(NC(=O)CSc2nc(=O)n(CCN3CCOCC3)c3c2CCC3)cc1
The “hERG current change (%, negative = inhibition) at 10uM” value of the first is higher: 0.105% for the first, -41.5% for the second.

Compared with `COc1ccc(S(=O)(=O)N2CCCCCC2)cc1C(=O)N(C)CC(=O)Nc1ccccc1Cl`, `COc1ccc(OC)c(CN2CCN(C(=O)[C@@H](NC(=O)c3cccc(C)c3)C(C)C)CC2)c1` is lower in “hERG current change (%, negative = inhibition) at 10uM” value: -19.7% for the first, -25.4% for the second.

Going from `C#CCOCCOCCOCCNc1nc(N2CCN(C(=O)Cn3cc(CCO)nn3)CC2)nc(N2CCN(C(=O)[C@H]([C@@H](C)O)n3cc(CCCC[NH3+])nn3)CC2)n1.[Cl-]` to `CC(C)N1CCN(c2ccc(S(=O)(=O)N3CCOCC3)cn2)CC1`, the “hERG current change (%, negative = inhibition) at 10uM” value falls from 12.3% to 8.48%.

Compared with `COc1cc(CNCc2ccccn2)ccc1OCc1ccccc1Cl.Cl`, `COc1ccc(CN2CCN(Cc3cc4ccccc4o3)CC2CCO)cc1C` (stereo not shown) is higher in “hERG current change (%, negative = inhibition) at 10uM” value: -58.3% for the first, -40.4% for the second.

First: CCCCCCn1c(SCC(=O)c2ccccc2)nc2c1c(=O)[nH]c(=O)n2C
Second: Cc1cc(=O)[nH]c(SCc2nc3ccccc3s2)n1
The “hERG current change (%, negative = inhibition) at 10uM” value of the first is lower: -26% for the first, 7.29% for the second.

Going from `CCOc1cc2[nH]c(=S)n(CCOC)c(=O)c2cc1OCC` to `CCC(=O)N(Cc1cc2cc(OC)ccc2[nH]c1=O)c1ccc(C)cc1C`, the “hERG current change (%, negative = inhibition) at 10uM” value falls from 6.27% to -10.4%.

Compared with `COc1ccc(-n2c(C)c(C(C)=O)c(C(C)=O)c2C)cc1OC`, `COc1cc(C=Nc2cccc(C)c2)c(O)c([N+](=O)[O-])c1` is lower in “hERG current change (%, negative = inhibition) at 10uM” value: 23.3% for the first, 3.12% for the second.

Compared with `N#Cc1ccc(OCCN2C(=O)NC3(CCSC3)C2=O)cc1` (stereo not shown), `CC1(CCc2ccccc2)NC(=O)N(Cc2cc([N+](=O)[O-])cc3c2OCOC3)C1=O` (stereo not shown) is higher in “hERG current change (%, negative = inhibition) at 10uM” value: -57.2% for the first, 2.92% for the second.

Going from `Cc1ccc(CN(C)C2CCN(C)CC2)cc1` to `CC(NS(=O)(=O)c1ccc(Br)cc1)C(c1cccs1)N1CCOCC1` (stereo not shown), the “hERG current change (%, negative = inhibition) at 10uM” value falls from 16.8% to -28.5%.

First: Nc1cccc(-n2nnnc2CN2CCOCC2)c1
Second: Cc1cccc(-n2ncc3c(=O)[nH]c(SCC(=O)NCCC4=CCCCC4)nc32)c1
The “hERG current change (%, negative = inhibition) at 10uM” value of the first is higher: 12.8% for the first, 10.9% for the second.

Compared with `CC(C)c1nc(CNC(=O)CC2C(=O)NCCN2Cc2ccc(F)cc2Cl)cs1` (stereo not shown), `Cc1nc(CNS(=O)(=O)c2cccs2)cs1` is lower in “hERG current change (%, negative = inhibition) at 10uM” value: 4.2% for the first, -3.02% for the second.

Compared with `CN(C)S(=O)(=O)N1C(=O)c2ccccc2C1=O`, `COCc1cc(C)nc(SCc2ccc(Cl)cc2)c1C#N` is lower in “hERG current change (%, negative = inhibition) at 10uM” value: 35.3% for the first, -8.83% for the second.

In the case of `C[C@@H](OC(=O)N1CCCCC1)[C@H]1O[C@]2(C)CCCC[C@H]1O2`, the “hERG current change (%, negative = inhibition) at 10uM” value is reported as 15.8%.
